Data from PubChem BioAssay (Tox21).
Several values for one entry are separate records, joined by “and”; a condition that tells them apart may be missing. Equal values may be shown once. Inconclusive results, whose numbers are uncertain, are shown with a selection of clear calls. For part of these data: A potency beside an inconclusive call is a rough fit, not a confirmed value. Activity calls are given as the source filed them. Unless noted, calls come from the whole dose curve; as a rule, active = well fitted curve in the direction sought with a large enough effect in the repeat runs; inconclusive = weak or mixed curves; inactive = no such curve, though single readings can be large; an effect the other way counts as inactive or inconclusive.

Columns and labels:
[1] = qHTS RealTime-Glo MT Cell Viability Assay in HEK293 cells - 8 hour (AID 1224887); note: nearly all actives have a fitted effect of over 50% in size
How it was run: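 600 HEK293 cells per well, dispensed already mixed with RealTime-Glo MT reagents. Compound dosing came 5 h later. The same wells were read for luminescence at 0, 8, 16, 24, 32 and 40 h of exposure at 37 C.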

[2] = A CellTox Green Cytotoxicity Assay to monitor cytotoxicity in HEK293 cells - 16 hour (AID 1224888); note: nearly all actives have a fitted effect of over 35% in size
How it was run: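 Dead-cell fluorescence measured kinetically: asymmetric cyanine dye, HEK293, 600 cells/well, 5 h settle, 23 nL cpd/DMSO, 37 C, reads 0–40 h every 8 h.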

[3] = target: Estrogen receptor beta (Homo sapiens) (UniProt Q92731); test: qHTS assay to identify small molecule agonists of the estrogen receptor beta (ER-beta) signaling pathway (AID 1259377; active = well fitted activation curve with a large enough effect in the signal ratio in the repeat runs, not every such curve was filed as active; inconclusive = weak or mixed curves, or effect the other way; the % refers to the signal ratio); conditions: ER-beta-UAS-bla HEK293T, beta-lactamase FRET ratio, 16 h; activation: at 92.4 µM (top of the series) unless noted
Chain of UniProt Q92731 (Q92731 whole entry, looked up): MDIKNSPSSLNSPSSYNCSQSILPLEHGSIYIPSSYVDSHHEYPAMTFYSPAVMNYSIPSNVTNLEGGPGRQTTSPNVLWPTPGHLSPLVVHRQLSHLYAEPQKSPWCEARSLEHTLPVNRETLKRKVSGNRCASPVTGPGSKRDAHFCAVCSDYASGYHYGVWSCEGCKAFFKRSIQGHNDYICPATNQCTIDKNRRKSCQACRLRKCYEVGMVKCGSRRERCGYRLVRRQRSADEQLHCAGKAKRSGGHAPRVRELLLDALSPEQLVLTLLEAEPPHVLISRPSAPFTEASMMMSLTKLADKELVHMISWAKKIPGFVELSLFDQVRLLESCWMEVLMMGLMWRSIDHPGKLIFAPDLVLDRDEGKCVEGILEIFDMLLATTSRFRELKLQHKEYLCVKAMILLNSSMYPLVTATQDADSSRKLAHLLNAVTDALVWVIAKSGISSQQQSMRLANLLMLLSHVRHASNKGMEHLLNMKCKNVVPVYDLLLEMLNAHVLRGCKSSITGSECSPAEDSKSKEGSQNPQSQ
How it was run: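 A UAS-controlled beta-lactamase reporter in ER-beta-UAS-bla HEK293T cells reports receptor activation. Compounds act for 16 hr at 37C in 2% charcoal-stripped serum, and a FRET substrate is read by fluorescence after 2 hours.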

[4] = qHTS assay to identify small molecule antagonists of the estrogen receptor alpha (ER-alpha) signaling pathway using the BG1 cell line in the presence of 0.1 nM 17-beta-estradiol - cell viability counter screen (AID 1259241); note: nearly all actives have a fitted effect of over 40% in size
How it was run: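 The cell line endogenously expresses full-length ER-alpha and carries four EREs driving luciferase. Cells are cultured 5 days hormone-free, treated 22 hr with compounds and 0.1 nM estradiol, then viability is read by fluorescence.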

[5] = target: Androgen receptor (Homo sapiens) (UniProt P10275); test: qHTS assay to identify small molecule antagonists of the androgen receptor (AR) signaling pathway using the MDA cell line in the presence of 0.5 nM R1881 (AID 1259243); note: nearly all actives have a fitted effect of over 50% in size
Chain of UniProt P10275 (P10275 whole entry, looked up): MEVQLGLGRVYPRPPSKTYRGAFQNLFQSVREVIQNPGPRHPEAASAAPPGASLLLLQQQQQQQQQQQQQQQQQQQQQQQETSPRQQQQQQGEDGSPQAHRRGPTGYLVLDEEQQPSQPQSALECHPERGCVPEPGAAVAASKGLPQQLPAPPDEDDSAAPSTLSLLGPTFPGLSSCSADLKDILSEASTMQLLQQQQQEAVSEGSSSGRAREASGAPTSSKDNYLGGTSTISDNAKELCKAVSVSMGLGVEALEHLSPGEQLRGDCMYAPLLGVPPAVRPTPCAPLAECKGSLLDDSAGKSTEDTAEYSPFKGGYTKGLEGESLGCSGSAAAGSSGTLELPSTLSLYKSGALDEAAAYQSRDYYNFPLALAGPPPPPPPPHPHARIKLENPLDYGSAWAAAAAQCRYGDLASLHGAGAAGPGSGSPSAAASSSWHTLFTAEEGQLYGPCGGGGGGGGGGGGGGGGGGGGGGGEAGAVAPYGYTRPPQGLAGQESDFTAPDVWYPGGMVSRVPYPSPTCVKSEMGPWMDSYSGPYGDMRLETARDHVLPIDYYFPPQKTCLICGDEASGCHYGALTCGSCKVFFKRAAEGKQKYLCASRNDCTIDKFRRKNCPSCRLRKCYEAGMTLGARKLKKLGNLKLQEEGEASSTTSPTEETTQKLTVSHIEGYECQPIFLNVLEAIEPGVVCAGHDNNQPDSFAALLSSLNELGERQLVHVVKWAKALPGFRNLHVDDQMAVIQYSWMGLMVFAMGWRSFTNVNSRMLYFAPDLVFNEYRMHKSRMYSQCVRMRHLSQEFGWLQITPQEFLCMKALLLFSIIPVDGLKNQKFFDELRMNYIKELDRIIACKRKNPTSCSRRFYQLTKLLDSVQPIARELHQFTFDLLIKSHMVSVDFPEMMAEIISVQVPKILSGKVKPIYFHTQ
How it was run: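 Antagonist mode quantitative HTS in MDA-kb2 MMTV-luciferase cells, agonist R1881 at 0.5 nM final, 16 hr exposure at 37C and 0% CO2, luminescent detection.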

[6] = qHTS assay to identify small molecule antagonists of the sonic hedgehog signaling (Shh) pathway (AID 1259369; calls by dose curve; note: nearly all actives have a fitted effect of over 45% in size)
How it was run: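 Stable Gli1-Luc reporter NIH/3T3 clone; quantitative HTS in stimulated mode with conditioned medium. Luminescence measured after 24hr compound treatment at 37 C.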

[7] = qHTS assay to identify small molecule antagonists of the androgen receptor (AR) signaling pathway using the MDA cell line in the presence of 0.5 nM R1881 - cell viability counter screen (AID 1259242); note: nearly all actives have a fitted effect of over 45% in size
How it was run: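 qHTS format. MDA-kb2 (MMTV-luc, AR/GR responsive) + cpd + 0.5 nM R1881 final, 16 hr 37C/0% CO2 → CellTiter-Fluor 30 min → fluorescence intensity.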

[8] = qHTS assay to identify small molecule agonists of the sonic hedgehog signaling (Shh) pathway - cell viability counter screen (AID 1259366); note: nearly all actives have a fitted effect of over 50% in size
How it was run: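 Viability measured fluorometrically (CellTiter-Fluor, 1hr, 37C) in 3T3 Gli1-Luc reporter cells after 23hr compound exposure within a 24hr incubation at 37C/5% CO2.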

[9] = qHTS assay to identify small molecule antagonists of the sonic hedgehog signaling (Shh) pathway - cell viability counter screen (AID 1259367); note: nearly all actives have a fitted effect of over 55% in size
How it was run: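 Conditioned medium drove Shh signaling in 3T3 Gli1-Luc cells exposed to compounds at 37C and 5% CO2. Viability was determined from CellTiter-Fluor fluorescence, with reagent incubated 1 hr after 23 hr of treatment.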

[10] = qHTS RealTime-Glo MT Cell Viability Assay in HepG2 cells - 0 hour (AID 1224889); note: nearly all actives have a fitted effect of over 50% in size
How it was run: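 Cells + NanoLuc/prosubstrate dispensed (600 cells/well) → 5 h at 37 C/5% CO2 → compounds in DMSO transferred → 40 h incubation at 37 C, luminescence read at 0, 8, 16, 24, 32, 40 h.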

[11] = target: Estrogen receptor (Homo sapiens) (UniProt P03372); test: qHTS assay to identify small molecule antagonists of the estrogen receptor alpha (ER-alpha) signaling pathway using the BG1 cell line in the presence of 0.1 nM 17-beta-estradiol (AID 1259244); note: nearly all actives have a fitted effect of over 50% in size
Chain of UniProt P03372 (P03372 whole entry, looked up): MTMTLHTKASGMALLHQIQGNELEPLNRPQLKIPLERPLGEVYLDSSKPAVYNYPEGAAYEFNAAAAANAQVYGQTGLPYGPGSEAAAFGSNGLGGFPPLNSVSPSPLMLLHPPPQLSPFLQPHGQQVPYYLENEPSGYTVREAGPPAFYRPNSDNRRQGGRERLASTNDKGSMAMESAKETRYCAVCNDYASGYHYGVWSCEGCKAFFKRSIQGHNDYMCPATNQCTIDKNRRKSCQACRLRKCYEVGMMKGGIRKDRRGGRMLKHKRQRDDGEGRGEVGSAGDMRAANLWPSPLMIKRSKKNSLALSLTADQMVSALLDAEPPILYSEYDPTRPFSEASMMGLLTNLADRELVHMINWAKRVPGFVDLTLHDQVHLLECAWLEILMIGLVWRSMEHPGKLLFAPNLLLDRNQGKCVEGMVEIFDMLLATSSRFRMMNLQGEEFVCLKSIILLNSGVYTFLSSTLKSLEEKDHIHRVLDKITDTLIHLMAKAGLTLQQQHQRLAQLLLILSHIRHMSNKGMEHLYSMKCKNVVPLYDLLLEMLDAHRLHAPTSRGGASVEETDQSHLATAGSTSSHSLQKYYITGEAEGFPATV
How it was run: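 Reporter is a stably transfected luciferase under four estrogen responsive elements in VM7Luc4E2 cells expressing native full-length ER-alpha; inhibition of 0.1 nM (final) 17beta-estradiol-driven signal over 22 h is read by luminescence.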
Potency is the fitted concentration of half-maximal effect; tags give direction and shape of the fitted curve or compound fluorescence and quenching.

## Cc1cc(CCC(=O)OCCOCCOCCOC(=O)CCc2cc(C)c(O)c(C(C)(C)C)c2)cc(C(C)(C)C)c1O
[1]
  Potency: active: 33.8 µM
[2]
  Potency: inactive
[3]
  Potency: inactive

## COc1cc(C(=O)OCCCN2CCCN(CCCOC(=O)c3cc(OC)c(OC)c(OC)c3)CC2)cc(OC)c1OC
[1]
  Potency: active: 9.52 µM
[4]
  Potency: inconclusive: 9.44 µM [cytotoxic, partial curve]
[5]
  Potency: inconclusive: 33.5 µM [inhibitor, single point]
[3]
  Potency: inactive

## O=C(O)c1ccccc1C(=O)Nc1ccc(S(=O)(=O)Nc2nccs2)cc1
[1]
  Potency: inactive

## CCN1C(=O)c2ccccc2C1Nc1ccc(OCCN2CCCCC2)cc1 (centres undefined)
[1]
  Potency: active: 3.79 µM
[5]
  Potency: inactive
[6]
  Potency: active: 13.3 µM

## CCCCCCCCN1CCCC1=O
[1]
  Potency: inactive
[7]
  Potency: inactive

## CC(C)C(=O)Nc1ccc([N+](=O)[O-])c(C(F)(F)F)c1
[1]
  Potency: active: 22.5 µM and active: 21.9 µM and active: 9.52 µM
[4]
  Potency: inconclusive: 34.4 µM [cytotoxic, partial curve, poor fit]
[7]
  Potency: inconclusive: 70.5 µM [cytotoxic, single point]
[6]
  Potency: inconclusive: 4.33 µM [inhibitor, full curve] and inconclusive: 13.3 µM [inhibitor, full curve, poor fit]

## COC(=O)c1ccccc1OC
[1]
  Potency: inconclusive: 27.5 µM [rising, partial curve, poor fit]
[2]
  Potency: inconclusive: 61.6 µM [activator, single point]
[4]
  Potency: inactive

## Cc1cc(C)c(S(=O)(=O)O)cc1N=Nc1cc(S(=O)(=O)O)c2ccccc2c1O
[1]
  Potency: inconclusive: 24.5 µM [cytotoxic, partial curve]
[7]
  Potency: active: 61.1 µM
[8]
  Potency: active: 27.3 µM
[9]
  Potency: active: 30.6 µM

## CC1c2ccccc2CN1NC(=O)c1ccc(Cl)c(S(N)(=O)=O)c1 (centres undefined)
[1]
  Potency: inactive

## C/C=C\C/C=C/CCCCCCCCOC(C)=O
[1]
  Potency: inconclusive: 43.6 µM [cytotoxic, single point]
[10]
  Potency: inconclusive: 61.6 µM [cytotoxic, partial curve, poor fit]
[6]
  Potency: inconclusive: 30.6 µM [inhibitor]

## CCCCCCCCCCCCCCCC(=O)OCC
[1]
  Potency: inactive

## Cc1cc(CCCOc2c(C)cc(-c3noc(C(F)(F)F)n3)cc2C)on1
[1]
  Potency: inconclusive: 26.8 µM [cytotoxic, single point]
[5]
  Potency: active: 26.6 µM

## COc1ccc(C(=O)c2ccc(OC)cc2O)c(O)c1
[1]
  Potency: inconclusive: 49.3 µM [cytotoxic, partial curve]
[2]
  Potency: inconclusive: 62.1 µM [activator, single point]
[5]
  Potency: inconclusive: 43.6 µM [inhibitor, partial curve]
[6]
  Potency: inconclusive: 17.4 µM [inhibitor, full curve, poor fit]
[3]
  Potency: active: 48.9 µM

## O=C(/C=C/c1ccc([N+](=O)[O-])cc1)c1ccccc1
[1]
  Potency: inconclusive: 13.8 µM [cytotoxic, full curve]
[11]
  Potency: inactive
[6]
  Potency: inconclusive: 54.6 µM [inhibitor, partial curve, poor fit]
[3]
  Potency: inconclusive: 68.7 µM

## O=[N+]([O-])c1cccc(S(=O)(=O)O)c1
[1]
  Potency: inconclusive: 49.7 µM [cytotoxic, partial curve, poor fit]
[2]
  Potency: inactive
[7]
  Potency: inconclusive: 69.6 µM [cytotoxic, single point]

## COC(=O)NN
[1]
  Potency: inactive

## CCOCCOCCOC(C)=O
[1]
  Potency: inactive

## Oc1c(Cl)cc(Cl)c(Cl)c1Cl
[1]
  Potency: inconclusive: 48 µM [cytotoxic, partial curve, poor fit] and inconclusive: 54.9 µM [cytotoxic, single point]
[11]
  Potency: active: 47.5 µM and active: 61.1 µM
[6]
  Potency: inconclusive: 30 µM [inhibitor]
[3]
  Potency: inconclusive: 3.36 µM [rising, partial curve]

## CC12CCC(CC1)C(C)(C)O2
[1]
  Potency: inconclusive: 0.49 µM [cytotoxic, partial curve, poor fit]

## COc1ccc(-c2cc(=S)ss2)cc1
[1]
  Potency: inconclusive: 26.8 µM [cytotoxic, partial curve, poor fit]
[4]
  Potency: inconclusive: 33.5 µM [cytotoxic, partial curve, poor fit]

## COC(C)(C)OC
[1]
  Potency: inactive
[10]
  Potency: inactive
